Assay results from PubChem BioAssay AID2546 (National Center for Advancing Translational Sciences (NCATS), 2010).
Among all 310,000 compounds or so, about 11,000 (3.5%) were called active. This list was built around the results that the source calls inconclusive (neither active nor inactive); the mix of calls is not that of the screen. Calls follow the shape of the dose curve; as a rule, active = well fitted inhibition curve with a large enough effect; inconclusive = small, poorly fitted or top-dose-only effect, or effect the other way; inactive = flat fitted curve, though single readings scatter. Potencies of inconclusive entries are left out as doubtful fits.

Assay: VP16 counterscreen qHTS for inhibitors of ROR gamma transcriptional activity;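 also: Gal4-VP16 expression switched on by copper sulfate through the metallothionein promoter; nearly all actives have a fitted effect of over 50% in size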
Conditions: Drosophila S2 Gal4-VP16 UAS-luciferase, luminescence, 20 h; activity, negative = inhibition: at 53.6 µM (top of the series)
% is scaled to controls: 0 for no effect and ±100 for the full control effect; potency is read from the fitted curve at half-maximal effect; tags tell the direction and shape of the fitted curve.

Structure (SMILES) | Potency | activity, negative = inhibition
CC(=O)N1CCC(C(=O)Nc2ccc(S(=O)(=O)NCCc3ccccc3)cc2)CC1 | inconclusive [activator, single point] | 
CCCCS(=O)CC(COc1ccc(Cl)cc1)OC(=O)c1ccccc1 (configuration not stated) | inconclusive [inhibitor, single point] | 
CC(C)c1ccc(C2NC(C(=O)O)CS2)cc1 (configuration not stated) |  | inactive: -2.01%
COc1cc(CNc2nc(C)c([N+](=O)[O-])c(C)c2C#N)cc(OC)c1OC | inconclusive [inhibitor, single point] | 
O=C1C(Cl)=C(NCCN2CCOCC2)C(=O)c2ccccc21 | inconclusive [inhibitor, single point] | 
CCN1CCN(C(c2cccs2)C(C)NS(=O)(=O)c2ccc(F)cc2)CC1 (configuration not stated) |  | inactive: -8.17%
Cc1ccc(/C=N/NC(=O)c2cc3ccccc3cc2O)o1 | active: 1.58 µM | 
Fc1cccc(CSc2nc3ncccc3[nH]2)c1 | inconclusive [inhibitor, single point] | 
CCCCOC(=O)c1ccc(-c2ccc(/C=N/NC(=S)NCC)o2)cc1 | active: 2.51 µM | 
Cc1cc(C)cc(NC(=S)NC(=O)CCN2C(=O)c3ccccc3C2=O)c1 | active: 4.47 µM | 
O=[N+]([O-])c1ccc(NC(=S)N2CCc3ccccc32)cc1 | inconclusive [inhibitor, single point] | 
COCCN(C(=O)c1csnn1)C(C(=O)NC1CCCCC1)c1sccc1C (configuration not stated) | inconclusive [inhibitor, single point] | 
COc1cccc(/C=N/n2c(N)nc3ccccc32)c1OC | inconclusive [inhibitor, single point] | 
N#Cc1c(Nc2ccccc2C(F)(F)F)s[nH]c1=O | active: 11.2 µM | 
O=C(N/N=C/c1cc2ccccc2nc1Cl)[C@H]1C[C@@H]1c1ccccc1 | inconclusive [inhibitor, single point] | 
O=C(c1ccc(C(=O)N2CCCCCC2)cc1)N1CCCCCC1 |  | inactive: -5.17%
CC(C)c1ccccc1NC(=O)COc1ccc(C(=O)NCCc2ccccc2)cc1 | active: 17.8 µM | 
CC(C)(C)c1ccc(C(=O)NCc2ccccc2)cc1 | inconclusive [activator, full curve] | 
O=C(N/N=C/c1c[nH]c2ccccc12)C1CC1(c1ccccc1)c1ccccc1 (configuration not stated) | inconclusive [inhibitor, single point] | 
CC(C)(Oc1ccc(Cl)cc1)C(=O)NCCN1C(=O)S/C(=C/c2cccnc2)C1=O | inconclusive [inhibitor, single point] | 
COC(=O)c1cc2oc(C)cc2n1CC(=O)Nc1ccc(C)c(C)c1 |  | inactive: 24.5%
Cc1cc(C(=O)NC2CCCc3c2cnn3-c2ccc(C)c(C)c2)nc(C)n1 (configuration not stated) |  | inactive: -15.7%
COc1ccc(-c2nc3cnc(N4CCNCC4)nc3n(Cc3cccs3)c2=O)cc1 | inconclusive [inhibitor, single point] | 
COC(=O)/C=C1/S/C(=N/NC(=O)c2ccc(Cl)cc2Cl)NC1=O | inconclusive [inhibitor, single point] | 

Structure (SMILES) | Potency | activity, negative = inhibition
CC(=O)Nc1ccc(N2C(=O)CC(Sc3nccc(C)n3)C2=O)cc1 (configuration not stated) | inconclusive [inhibitor, partial curve] | 
CC(C)N1CCC(n2nccc2NC(=O)c2ccc3c(c2)OCO3)CC1 |  | inactive: 1.94%
Cc1ccc(C(=O)Nc2ccccc2C(=O)NCc2ccco2)cc1S(=O)(=O)N1CCCCC1 | inconclusive [activator, single point] | 
CCOC(=O)c1c(-c2ccc(-c3ccccc3)cc2)csc1NC(=O)CNCCN(C)C | active: 1.58 µM | 
O/C(=C\c1nc2ccccc2[nH]1)c1cccs1 | inconclusive [inhibitor, partial curve] | 
CCOC(=O)Cn1ncn(-c2ccc(OC(F)(F)F)cc2)c1=O |  | inactive: -3.98%
Cn1cc(C(=O)N/N=C/c2ccc3c(c2)OCO3)c2ccccc21 |  | inactive: 9.97%
Cc1ccc(S(=O)(=O)NNc2nc3ccccc3nc2C(F)(F)F)cc1 | inconclusive [inhibitor, single point] | 
O=C(COC(=O)c1ccccc1Sc1ccc(C(F)(F)F)cc1[N+](=O)[O-])NC(=O)NC1CCCC1 | inconclusive [inhibitor, single point] | 
COc1ccc(C(=O)CCNc2ccc3c(c2)OCCO3)cc1 |  | inactive: 7.63%
Cc1ccc(N2CC(C(=O)Nc3ncc([N+](=O)[O-])s3)CC2=O)cc1 (configuration not stated) |  | inactive: 0.113%
COc1cccc2sc(NNC(=O)c3nc4ccccc4s3)nc12 | active: 2 µM | 
COc1ccc(C(=O)NC(=S)NCc2ccco2)cc1 | active: 11.2 µM | 
CCC[C@@H](NS(=O)(=O)c1ccc(C)cc1)C(=O)Oc1ccc2c3c(c(=O)oc2c1)CCC3 | inconclusive [inhibitor, single point] | 
O=C(Nc1cc(N2CCOCC2)ncn1)NC1(C(F)(F)F)Oc2ccc(Cl)cc2O1 (configuration not stated) | active: 15.8 µM | 
O=C(CSc1cccc[n+]1[O-])Nc1cccc(Oc2ccccc2)c1 | inconclusive [inhibitor, full curve, poor fit] | 
COc1ccc(CCNC(=O)C(C)Sc2ccc(C)cc2)cc1OC (configuration not stated) | inconclusive [activator, single point] | 
CCOCCCNC(=O)C(NC(=O)c1ccc(NC(C)=O)cc1)c1ccc(C)cc1 (configuration not stated) | inconclusive [activator, single point] | 
CC(C)(C)c1nnc(NC(=O)Cc2ccc(Br)cc2)s1 | inconclusive [inhibitor, single point] | 
COc1ccc(CNc2nc3ccccc3s2)cc1OC | inconclusive [inhibitor, single point] | 
Cc1ccc(F)cc1CNC(=O)c1cc(COc2ccc3ncccc3c2)on1 | active: 11.2 µM | 
Cc1cccc(OCCn2c(NC(=O)c3ccco3)nc3ccccc32)c1 | active: 2 µM | 
O=C1c2ccccc2NC(c2ccc(-c3cccc([N+](=O)[O-])c3)o2)N1O (configuration not stated) | inconclusive [inhibitor, single point] | 
